Data as given in PubChem BioAssay AID463173 (ICCB-Longwood Screening Facility, Harvard Medical School, 2010).
The whole screen tested about 52,000 compounds, of which about 1,700 (3.3%) were called active. Rule as the data show it: active = survival mostly below about 52% (no sharp cut-off); inactive = mostly above about 56%. The list shows a part of the results.

System: Wild type
Experiment: growth inhibition of S. aureus wild type versus tarO mutant, primary screen, teichoic acid synthesis inhibitors, RN4220, OD600 (AID 463173)
Conditions: S. aureus RN4220 wild type/DeltatarO growth, OD600, 18 h, hits give low values, screened at 18.75 µg/mL (by protocol)

Row | SMILES | survival
1 | Cc1ccc(-n2ncc(C(=O)NC3CCCC3)c2C2CCN(C(=O)OC(C)(C)C)CC2)c(C)c1 | inactive: 79%
2 | CNc1nc(Oc2ccc(=O)n(C)n2)nc(N2CCOCC2)n1 | inactive: 72%
3 | COc1cccc(Cn2nnc3c(=O)[nH]c(C4CCCN(C(=O)c5ccc(C)cc5)C4)nc32)c1 (configuration not stated) | inactive: 109%
4 | Cc1ccc(C)c(NS(=O)(=O)c2ccc3c4c(cccc24)C(=O)N3)c1 | inactive: 83%
5 | COc1ccc(S(=O)(=O)N2CCCC(C(=O)N(Cc3cccs3)C3CC3)C2)cc1Cl (configuration not stated) | inactive: 100%
6 | CCn1nnnc1SCC(=O)NC1CCCC1 | inactive: 99%
7 | Cc1ccc(-c2cc(-c3ccccc3)nc(N3CCCC3)n2)cc1 | inactive: 121%
8 | Cn1c(SCC(=O)N2CCCc3ccccc32)ncc(C(=O)Nc2ccc(Cl)cc2)c1=O | inactive: 110%
9 | CCOc1ccccc1-c1nc(=S)[nH][nH]1 | inactive: 110%
10 | COc1cccc(CN(Cc2ccco2)c2cnc(S(C)(=O)=O)nc2C(=O)Nc2cccc(Cl)c2C)c1 | inactive: 86%
11 | Cc1cc2cc(CN(Cc3ccco3)C(c3nnnn3C3CCCC3)C(C)C)c(=O)[nH]c2cc1C (configuration not stated) | inactive: 120%
12 | CCc1nc2nc(C)cc(Nc3ccc(OC)cc3)n2n1 | inactive: 69%
13 | CN(C1CCCCC1)S(=O)(=O)c1ccc2c(c1)c(=O)c(C(=O)NCCc1ccc(Cl)cc1)cn2C | inactive: 77%
14 | CSCCC(NS(=O)(=O)c1ccc2c(c1)oc(=O)n2C)C(=O)NCCc1ccc(C)cc1 (configuration not stated) | inactive: 73%
15 | Cc1ccc(-c2nnc(Nc3cccc(Cl)c3)c3ccccc23)cc1S(=O)(=O)NCC1CCCO1 (configuration not stated) | inactive: 131%
16 | CCS(=O)(=O)N1CCC(C(=O)NCCC(C)C)CC1 | inactive: 72%
17 | CC(C)NC(=O)Cn1nnc(-c2ccc(Cl)cc2)n1 | inactive: 95%
18 | COc1cccc(OCCCCn2c(-c3ccc(Cl)cc3)nc3ccccc3c2=O)c1 | inactive: 30%
19 | O=S(=O)(NCCSc1nnnn1-c1ccccc1)c1ccc(F)cc1 | inactive: 76%

Row | SMILES | survival
20 | Cc1ccc(-c2onc(C)c2C)cc1S(=O)(=O)NCc1ccco1 | inactive: 112%
21 | Cc1ccc(S(=O)(=O)c2cnc(SCC(=O)Nc3ccc4c(c3)OCCO4)[nH]c2=O)cc1 | inactive: 86%
22 | CCOc1cc(C(=O)Nc2cccc(-c3nc4ccccc4o3)c2)cc(OCC)c1OCC | inactive: 79%
23 | CC(=O)Nc1ccc(S(=O)(=O)NC2(C(F)(F)F)NC(=O)N(c3ccc(C)cc3)C2=O)cc1 (configuration not stated) | inactive: 74%
24 | O=C(c1cccc([N+](=O)[O-])c1)N1c2ncnn2C2(CCCCC2)[C@@H]2CCCC[C@@H]21 | inactive: 80%
25 | COC(=O)c1ccccc1NC(=O)Cn1cc(S(=O)(=O)Cc2ccccc2F)c2ccccc21 | inactive: 110%
26 | CCOC(=O)c1c(C)oc2nc(C)nc(NCc3ccccc3Cl)c12 | inactive: 73%
27 | CCCCc1ccc(-n2nc3cc(C)c(NC(=O)Cc4ccccc4)cc3n2)cc1 | inactive: 98%
28 | Cc1ccc2cccc(NC(=O)COc3ccccc3[N+](=O)[O-])c2n1 | inactive: 99%
29 | Cc1cccc(OCc2ccc(-c3nc(C#N)c(NCCN(C)C)o3)o2)c1 | inactive: 120%
30 | Cc1ccc(S(=O)(=O)c2cnc(SCC(=O)Nc3cc(C)cc(C)c3)nc2N)cc1 | inactive: 99%
31 | O=C(NCCNCc1ccccc1)c1ccco1 | inactive: 115%
32 | Cc1cc(Nc2ccc(C)c(C)c2)n2cnnc2n1 | inactive: 96%
33 | COc1ccc2c(c1)c1c(c(=O)n(-c3ccccc3C)c(=O)n1CC(=O)NCc1ccc(C)cc1)n2C | inactive: 84%
34 | CCCN(CCC)C(=O)CSc1nnc2cc(C)c3cc(C)cc(C)c3n12 | inactive: 79%
35 | CCN(CC)c1ccc(NC(=O)CSc2nnc(C)c(=O)[nH]2)cc1 | inactive: 90%
36 | CCOC(=O)c1c(NC(=O)COc2ccccc2F)sc2c1CCCC2 | inactive: 76%
37 | O=C(CN1CCCCCCC1)Nc1ccc2c(c1)OCO2 | inactive: 118%
38 | O=C(Nc1cc(Cl)cc(Cl)c1)c1ccc(F)c(S(=O)(=O)NC2CCCC2)c1 | inactive: 80%

Row | SMILES | survival
39 | Cc1cccc(CN2C(=O)c3ccccc3Sc3ccc(C(=O)N4CCCC4)cc32)c1 | inactive: 88%
40 | COC(=O)c1c(-c2cccs2)csc1NC(=O)c1ccc(Cl)cc1 | inactive: 73%
41 | COCCN1C(=O)c2[nH]nc(-c3ccccc3O)c2C1c1ccc(OCc2ccccc2)c(OC)c1 (configuration not stated) | inactive: 43%
42 | CCc1ccc(N(CC)C(=O)c2ccc3c(=O)n4c(nc3c2)CCCCC4)cc1 | inactive: 75%
43 | COC(=O)c1cc(S(=O)(=O)NCC2CCN(Cc3cc(C)ccc3C)CC2)c[nH]1 | inactive: 72%
44 | COc1ccc(-c2cn3c(n2)sc2cc(C(=O)NCc4ccccc4OC)ccc23)cc1 | inactive: 81%
45 | COc1ccccc1Nc1nn2c(=O)c3ccc(C(=O)NCc4cccs4)cc3nc2s1 | inactive: 83%
46 | Cc1ccc2c(=O)c(C(=O)c3ccc(F)cc3)cn(CC(=O)NCc3ccccc3)c2n1 | inactive: 84%
47 | COc1cccc(Cn2c(CNC(=O)C(C)C)nc3cccnc32)c1 | inactive: 80%
48 | COc1ccc(N2CCN(C(=O)c3ccc(C)c(NC(=O)c4nsc5ccccc45)c3)CC2)cc1 | inactive: 64%
49 | COc1ccc(OC)c(S(=O)(=O)NCCc2sc(-c3ccc(C)cc3)nc2C)c1 | inactive: 87%
50 | CCOC(=O)c1c(NC(=O)/C=C/c2ccccc2)sc2c1CCCC2 | inactive: 73%
51 | COc1ccc(C(=O)Nc2ccc(-c3nc4ncccc4o3)cc2)cc1 | inactive: 76%
52 | CC(C)(C)OC(=O)N1CCC(c2c(C(=O)NCc3ccccn3)cnn2-c2ccccc2)CC1 | inactive: 73%
53 | Cc1ccc(-c2nc3ccccc3[nH]2)cc1NC(=O)COc1cccc(C)c1C | inactive: 73%
54 | COc1cc(CNc2ccc3[nH]c(=O)[nH]c3c2)cc(Cl)c1OCc1ccccc1F | inactive: 86%
55 | Cc1ccc(-c2nonc2NC(=O)c2ccco2)cc1C | inactive: 79%
56 | Cc1ccc(-c2nn(CC(=O)Nc3cccc(C(F)(F)F)c3)c(=O)c3ccccc23)cc1 | inactive: 67%
57 | Cc1ccc(CNC(=O)c2ccc3c(c2)N(Cc2cccc(C)c2)C(=O)CS3)cc1 | inactive: 66%
